Laboratory results from PubChem BioAssay AID1508624 (National Center for Advancing Translational Sciences (NCATS), 2021).
In all, about 48,000 compounds went through this assay and about 120 (0.25%) were called active. About 4% were inconclusive and are not listed. Calls follow the shape of the dose curve; as a rule, active = well fitted activation curve with a large enough effect; inconclusive = small, poorly fitted or top-dose-only effect, or another doubt; inactive = no such curve, though single readings can be large or run the other way. This is one part of the list.

test: Primary qHTS for Identification of Small Molecule Activators of Huntingtin-Antisense Promoter Activity; settings: HEK293 HTT-AS promoter firefly luciferase reporter (activity 0% = vehicle and -100% = no light), 24 h; series mostly up to 57.5 µM; activity change, positive = activation: at the top concentration; also: nearly all actives have a fitted effect of over 55% in size
Method in brief: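 HEK293 cells carrying firefly luciferase reporters were seeded at 2,500 per well in Opti-MEM and cultured for 24 h. They were then treated with compounds at up to 57.5 uM final for 24 h at 37 degrees C before Dual-Glo luminescence readout.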

SMILES | activity change, positive = activation
Cc1ccc(Nc2ccc3cc(S(=O)(=O)N4CCCCC4)ccc3n2)cc1F | inactive: -21.5%
COc1ccc(C)cc1NC(=O)Cn1c(=O)oc2cc(S(=O)(=O)N3CCCCC3)ccc21 | inactive: -36.2%
CCOC(=O)c1ccc(NC(=O)CSc2nc(-c3ccc(OC)cc3)cc(C(F)(F)F)c2C#N)cc1 | inactive: -6.83%
CCn1cc2nc(SCC(=O)Nc3ccc(OC)c(Cl)c3)n(Cc3ccc(OC)cc3)c(=O)c2n1 | inactive: -28.6%
CC(C)c1noc(N2CCC(COc3ccc(-c4ccc(S(C)(=O)=O)cc4)nc3)CC2)n1 | inactive: -17.6%
O=C(Cc1ccccc1)N(Cc1cccnc1)c1nc2c(Cl)cccc2s1 | inactive: -25.5%
COc1ccc(N(CC(=O)N2CCN(c3ccccc3)CC2)S(=O)(=O)c2c(C)nn(C)c2C)cc1 | inactive: -4.04%
COc1ccc(-c2cc3nc(C)c(CCC(=O)NCc4ccccc4Cl)c(C)n3n2)c(OC)c1 | inactive: -25.1%
CC(=O)c1ccc(NC(=O)c2cn(-c3ccccc3)nc2-c2ccc(Br)cc2)cc1 | inactive: -13.3%
O=C(CCC1CCCC1)N1CCc2c([nH]c3ccccc23)C1c1ccc(F)cc1 (stereo not given) | inactive: -34.3%
CCc1nnc(SC(CC)C(=O)Nc2ccc(OC)c(Cl)c2)c2cc3occc3n12 (stereo not given) | inactive: -34.5%
N#Cc1nc(COc2ccccc2Cl)oc1NCCc1ccccc1 | inactive: 2.37%
CCc1cccc(C)c1NC(=O)C1CCN(S(=O)(=O)c2c(C)noc2/C=C/c2c(C)cc(C)cc2C)CC1 | inactive: 14.8%
CCOc1ccc(NC(=O)NCCN2CCN(c3cccc(C)c3C)CC2)cc1 | inactive: -21.3%
CC(=O)n1nc(-c2cccnc2)nc1NCc1ccc(F)cc1 | inactive: 8.06%
O=C1c2oc3ccccc3c(=O)c2C(c2ccc(O)cc2)N1Cc1ccc2c(c1)OCO2 (stereo not given) | inactive: -16.4%
O=C(c1ccc(Cl)cc1)N1CCC(c2nc3ccccc3o2)CC1 | inactive: -21.2%
CCOc1ccc(NC(=O)c2c(NCc3ccc(C)o3)sc3c2CCCCC3)cc1 | inactive: -9.06%
CCn1cc(C(=O)OCC(=O)Nc2cc(OC)cc(OC)c2)c(=O)c2ccc(C)nc21 | inactive: -11.7%
Cc1ccc(CNC(=O)CN2C(=O)CSc3ccc(S(=O)(=O)N(C)C)cc32)cc1 | inactive: -4.5%

SMILES | activity change, positive = activation
Cc1ccc(CSC2=Nc3ccccc3C3=NC(CC(=O)NCc4cccs4)C(=O)N23)c(C)c1 (stereo not given) | inactive: 6.67%
CCCCNS(=O)(=O)c1ccc(N2CCCCS2(=O)=O)cc1 | inactive: -18.4%
O=C(Nc1ccc2nc(SCCOc3ccccc3)sc2c1)c1ccccc1F | inactive: 4.58%
CCOC(=O)c1c(C)c(-c2ccccc2)n(CC(=O)Nc2ccc(OCC)cc2)c1C | inactive: -2.96%
COc1ccc(-c2cn3c(n2)sc2cc(C(=O)Nc4cccc(SC)c4)ccc23)cc1 | inactive: -3.33%
CCc1ccc(N(CC)C(=O)CCn2cnc3onc(-c4ccc(F)cc4)c3c2=O)cc1 | inactive: -39%
COc1ccccc1-c1noc(-c2ccc(N3CCN(C)CC3)c([N+](=O)[O-])c2)n1 | inactive: -27.3%
Cc1ccc(-c2ccc(=O)n(CC(=O)NCCc3ccc(Cl)cc3)n2)cc1 | inactive: -12.3%
COC(=O)C(CCSC)NC(=O)Cn1ncc2c([nH]c3ccccc32)c1=O (stereo not given) | inactive: -5.03%
COc1ccc(NC(=O)c2c(NCc3cccs3)sc3c2CCCC3)c(OC)c1 | inactive: -24.3%
CCCOc1ccc(CNC(=O)c2ccc3c(c2)N(Cc2ccccc2)CCS3)cc1 | inactive: -25.9%
COc1cccc2c1cc1c(=O)n(CC(=O)N3CCN(c4cccc(Cl)c4)CC3)nc(C)n12 | inactive: 0.294%
Cc1ccc(CNC(=O)CN2C(=O)CSc3c2c(C)nn3-c2ccccc2)cc1 | inactive: -0.714%
COc1ccc(NC(=O)c2oc3ccccc3c2NC(=O)Cc2coc3cc(C)ccc23)cc1 | inactive: 28.2%
COc1ccc(C)cc1NC(=O)CCNC(=O)Cn1ccc2ccccc2c1=O | inactive: 7.79%
CN1C(=O)Cc2cc(S(=O)(=O)CCC(=O)Nc3ccc(Cl)c(C(F)(F)F)c3)ccc21 | inactive: -19.7%
COCCCn1c(=N)c(C(=O)NCc2cccnc2)cc2c(=O)n3cccc(C)c3nc21 | inactive: -16.4%
CCOC(=O)c1c(C)[nH]c(CCC(=O)NCc2cccc(C)c2)c1C | inactive: -10.2%
COc1ccc(C2=C(C)C(=NCCCN3CCN(c4cc(Cl)ccc4C)CC3)NS2(=O)=O)cc1 | inactive: -40.5%
Cc1ccc(NC(=O)Cn2cc(S(=O)(=O)Cc3cccc(Cl)c3)c3ccccc32)cc1C | inactive: -28.8%

SMILES | activity change, positive = activation
COc1ccc(-n2ncc(C(=O)Nc3ccc4c(c3)OCO4)c2C2CCN(C(=O)OC(C)(C)C)CC2)cc1 | inactive: 8.26%
COc1ccc2oc(-c3ccc(C)c(NC(=O)c4ccc5c(c4)OCCO5)c3)nc2c1 | inactive: 3.21%
Cn1c(-c2ccccc2)cnc1NCc1ccccc1O | inactive: -2.83%
O=C(NCc1ccccc1Br)c1ccc2c(c1)nc1n2CCOC1 | inactive: 3.83%
O=C(CCC1N=C2c3ccccc3N=C(SCc3ccccc3F)N2C1=O)NCc1ccccc1 (stereo not given) | inactive: 28.5%
CCCNC(=O)COCc1cc(-c2ccc(F)cc2)on1 | inactive: -1.44%
Cc1cc(OCC(=O)Nc2c(C(=O)c3ccccc3)oc3ccccc23)cc(C)c1Cl | inactive: 6.68%
CCN1CCN(CCCNC(=O)c2cnn(-c3ccccc3Cl)c2C2CCN(C(=O)OC(C)(C)C)CC2)CC1 | inactive: -13.1%
CCOC(=O)C1CCCN(c2c(C(=O)c3ccc(OCC)cc3)cnc3ccccc23)C1 (stereo not given) | inactive: -22.9%
CC(C)CN(CCCNC(=O)c1cc(-c2cccs2)nc2ccccc12)CC(C)C | inactive: -15.3%
Cc1nn(C)c2c1c(-c1ccccc1)cc(=O)n2Cc1ccccc1C#N | inactive: -33.1%
Cc1cc(F)ccc1NC(=O)C1CCN(C(=O)c2cnn(-c3ccccc3)c2-n2cccc2)CC1 | inactive: -19.7%
CCCCCCCCCCCCCC(=O)N[C@H](CO)[C@H](O)c1ccc([N+](=O)[O-])cc1 | inactive: 0.538%
O=C(CCC1N=C2c3ccccc3N=C(SCc3cccc(F)c3)N2C1=O)NCCc1ccccc1 (stereo not given) | inactive: -28.5%
O=C(c1ccccc1)c1cn(Cc2ccc(F)cc2)c2ccccc2c1=O | inactive: -26.7%
CCCCc1nn2c(=O)cc(COC(=O)c3cccc(Cl)c3)nc2s1 | inactive: -4.92%
Cc1cccc(C)c1NC(=O)Cn1nnc(C(=O)Nc2c(C)cccc2C)c1N | inactive: -20.9%
CCCSc1nc(-c2ccc(OC)cc2)cc(-c2ccccc2OC)c1C#N | inactive: 2.02%
Cc1cccc(C)c1NC(=O)CN(Cc1ccc(Br)cc1)S(=O)(=O)c1ccccc1 | inactive: -35.6%
COc1ccc(Br)cc1CNC(=O)c1cc(=O)[nH]c2ccc(S(=O)(=O)N3CCCCC3)cc12 | inactive: -12%
